# Measured values taken from the supplement of paper PMC12067093, “Discovery and optimisation of a covalent ligand for TRIM25 and its application to targeted protein ubiquitination” (Chemical Science, 2025).
# The full data set covers some 21,000 targets. This sample favours those with the largest changes.
# Compound: CC1Cc2ccccc2N1C(=O)C1CCCN(C1)C(=O)CCl (mixture of isomers) [TRIM25 ligand 11 (diastereomer mixture)]
# Test: probe-labelled cysteine peptide fold change vs DMSO (competition) (log2 fold change); higher = less target engagement (more negative = stronger competition)
# Conditions: THP-1, incubation time: 4 h
# 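Note: competitive chemoproteomic profiling in live THP-1 cells with an iodoacetamide desthiobiotin (IA-DTB) probe, comparing probe-labelled peptide intensities in compound-treated cells against DMSO-treated controls.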
# Sequence of UniProt P42566 (P42566 whole entry, looked up): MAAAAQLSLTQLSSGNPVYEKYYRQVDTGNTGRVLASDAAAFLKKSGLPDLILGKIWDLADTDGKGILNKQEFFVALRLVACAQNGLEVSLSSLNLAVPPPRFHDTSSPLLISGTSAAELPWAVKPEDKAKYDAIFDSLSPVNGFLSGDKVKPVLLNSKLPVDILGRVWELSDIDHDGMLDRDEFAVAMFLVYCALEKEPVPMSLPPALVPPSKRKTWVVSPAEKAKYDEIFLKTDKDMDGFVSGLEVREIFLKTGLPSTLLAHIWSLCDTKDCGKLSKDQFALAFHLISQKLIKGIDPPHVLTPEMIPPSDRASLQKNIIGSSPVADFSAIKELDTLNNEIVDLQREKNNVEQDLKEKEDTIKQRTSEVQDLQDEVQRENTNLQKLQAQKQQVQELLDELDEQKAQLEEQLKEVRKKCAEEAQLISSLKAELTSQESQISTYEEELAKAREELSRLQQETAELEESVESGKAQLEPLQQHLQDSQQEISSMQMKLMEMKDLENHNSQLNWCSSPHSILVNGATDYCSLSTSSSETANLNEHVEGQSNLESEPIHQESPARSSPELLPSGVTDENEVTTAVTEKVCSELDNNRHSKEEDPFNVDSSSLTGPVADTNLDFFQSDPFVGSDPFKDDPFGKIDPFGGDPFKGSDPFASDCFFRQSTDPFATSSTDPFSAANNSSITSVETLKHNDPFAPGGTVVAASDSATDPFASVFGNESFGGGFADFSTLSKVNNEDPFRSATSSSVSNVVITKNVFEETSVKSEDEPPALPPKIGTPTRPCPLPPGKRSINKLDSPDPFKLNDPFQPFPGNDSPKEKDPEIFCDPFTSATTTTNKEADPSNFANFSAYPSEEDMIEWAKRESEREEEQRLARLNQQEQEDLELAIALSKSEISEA
# Sequence of UniProt Q9BZQ8 (Q9BZQ8 whole entry, looked up): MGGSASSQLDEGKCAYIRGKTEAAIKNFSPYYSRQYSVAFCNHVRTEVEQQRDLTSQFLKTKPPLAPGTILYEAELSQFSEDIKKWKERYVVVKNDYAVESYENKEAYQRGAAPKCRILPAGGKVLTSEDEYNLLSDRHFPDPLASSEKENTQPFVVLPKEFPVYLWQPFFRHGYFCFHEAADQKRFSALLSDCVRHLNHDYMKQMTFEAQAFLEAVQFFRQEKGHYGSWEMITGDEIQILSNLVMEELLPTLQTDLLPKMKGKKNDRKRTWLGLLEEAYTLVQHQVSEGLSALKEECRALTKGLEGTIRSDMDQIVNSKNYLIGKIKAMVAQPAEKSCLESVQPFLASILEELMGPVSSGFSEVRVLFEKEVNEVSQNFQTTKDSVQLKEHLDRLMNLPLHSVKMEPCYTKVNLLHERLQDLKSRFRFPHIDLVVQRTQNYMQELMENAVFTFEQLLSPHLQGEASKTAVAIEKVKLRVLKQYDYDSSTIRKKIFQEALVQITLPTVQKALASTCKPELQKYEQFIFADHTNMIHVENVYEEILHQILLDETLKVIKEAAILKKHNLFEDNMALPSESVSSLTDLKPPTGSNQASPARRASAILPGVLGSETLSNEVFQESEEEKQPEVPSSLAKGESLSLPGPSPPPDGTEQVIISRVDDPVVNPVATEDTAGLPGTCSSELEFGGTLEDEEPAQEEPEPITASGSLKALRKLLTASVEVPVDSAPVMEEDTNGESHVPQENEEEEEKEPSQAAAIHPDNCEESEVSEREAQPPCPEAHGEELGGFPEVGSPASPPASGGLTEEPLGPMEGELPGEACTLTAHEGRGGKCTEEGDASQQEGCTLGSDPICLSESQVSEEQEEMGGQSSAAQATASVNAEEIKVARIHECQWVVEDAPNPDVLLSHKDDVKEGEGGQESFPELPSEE
# Sequence of UniProt Q96HE7 (Q96HE7 whole entry, looked up): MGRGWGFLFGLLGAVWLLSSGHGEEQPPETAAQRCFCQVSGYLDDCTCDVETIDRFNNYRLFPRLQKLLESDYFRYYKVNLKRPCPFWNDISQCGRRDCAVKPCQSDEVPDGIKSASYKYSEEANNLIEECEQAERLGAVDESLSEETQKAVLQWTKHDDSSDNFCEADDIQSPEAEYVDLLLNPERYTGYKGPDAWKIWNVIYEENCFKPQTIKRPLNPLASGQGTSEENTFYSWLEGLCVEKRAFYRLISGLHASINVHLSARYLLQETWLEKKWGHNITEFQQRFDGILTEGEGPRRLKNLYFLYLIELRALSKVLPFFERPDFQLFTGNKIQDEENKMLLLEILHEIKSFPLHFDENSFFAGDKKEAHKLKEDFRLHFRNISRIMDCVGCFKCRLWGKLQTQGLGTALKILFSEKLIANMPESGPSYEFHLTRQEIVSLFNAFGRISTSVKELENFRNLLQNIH
# Sequence of UniProt P49327 (P49327 whole entry, looked up): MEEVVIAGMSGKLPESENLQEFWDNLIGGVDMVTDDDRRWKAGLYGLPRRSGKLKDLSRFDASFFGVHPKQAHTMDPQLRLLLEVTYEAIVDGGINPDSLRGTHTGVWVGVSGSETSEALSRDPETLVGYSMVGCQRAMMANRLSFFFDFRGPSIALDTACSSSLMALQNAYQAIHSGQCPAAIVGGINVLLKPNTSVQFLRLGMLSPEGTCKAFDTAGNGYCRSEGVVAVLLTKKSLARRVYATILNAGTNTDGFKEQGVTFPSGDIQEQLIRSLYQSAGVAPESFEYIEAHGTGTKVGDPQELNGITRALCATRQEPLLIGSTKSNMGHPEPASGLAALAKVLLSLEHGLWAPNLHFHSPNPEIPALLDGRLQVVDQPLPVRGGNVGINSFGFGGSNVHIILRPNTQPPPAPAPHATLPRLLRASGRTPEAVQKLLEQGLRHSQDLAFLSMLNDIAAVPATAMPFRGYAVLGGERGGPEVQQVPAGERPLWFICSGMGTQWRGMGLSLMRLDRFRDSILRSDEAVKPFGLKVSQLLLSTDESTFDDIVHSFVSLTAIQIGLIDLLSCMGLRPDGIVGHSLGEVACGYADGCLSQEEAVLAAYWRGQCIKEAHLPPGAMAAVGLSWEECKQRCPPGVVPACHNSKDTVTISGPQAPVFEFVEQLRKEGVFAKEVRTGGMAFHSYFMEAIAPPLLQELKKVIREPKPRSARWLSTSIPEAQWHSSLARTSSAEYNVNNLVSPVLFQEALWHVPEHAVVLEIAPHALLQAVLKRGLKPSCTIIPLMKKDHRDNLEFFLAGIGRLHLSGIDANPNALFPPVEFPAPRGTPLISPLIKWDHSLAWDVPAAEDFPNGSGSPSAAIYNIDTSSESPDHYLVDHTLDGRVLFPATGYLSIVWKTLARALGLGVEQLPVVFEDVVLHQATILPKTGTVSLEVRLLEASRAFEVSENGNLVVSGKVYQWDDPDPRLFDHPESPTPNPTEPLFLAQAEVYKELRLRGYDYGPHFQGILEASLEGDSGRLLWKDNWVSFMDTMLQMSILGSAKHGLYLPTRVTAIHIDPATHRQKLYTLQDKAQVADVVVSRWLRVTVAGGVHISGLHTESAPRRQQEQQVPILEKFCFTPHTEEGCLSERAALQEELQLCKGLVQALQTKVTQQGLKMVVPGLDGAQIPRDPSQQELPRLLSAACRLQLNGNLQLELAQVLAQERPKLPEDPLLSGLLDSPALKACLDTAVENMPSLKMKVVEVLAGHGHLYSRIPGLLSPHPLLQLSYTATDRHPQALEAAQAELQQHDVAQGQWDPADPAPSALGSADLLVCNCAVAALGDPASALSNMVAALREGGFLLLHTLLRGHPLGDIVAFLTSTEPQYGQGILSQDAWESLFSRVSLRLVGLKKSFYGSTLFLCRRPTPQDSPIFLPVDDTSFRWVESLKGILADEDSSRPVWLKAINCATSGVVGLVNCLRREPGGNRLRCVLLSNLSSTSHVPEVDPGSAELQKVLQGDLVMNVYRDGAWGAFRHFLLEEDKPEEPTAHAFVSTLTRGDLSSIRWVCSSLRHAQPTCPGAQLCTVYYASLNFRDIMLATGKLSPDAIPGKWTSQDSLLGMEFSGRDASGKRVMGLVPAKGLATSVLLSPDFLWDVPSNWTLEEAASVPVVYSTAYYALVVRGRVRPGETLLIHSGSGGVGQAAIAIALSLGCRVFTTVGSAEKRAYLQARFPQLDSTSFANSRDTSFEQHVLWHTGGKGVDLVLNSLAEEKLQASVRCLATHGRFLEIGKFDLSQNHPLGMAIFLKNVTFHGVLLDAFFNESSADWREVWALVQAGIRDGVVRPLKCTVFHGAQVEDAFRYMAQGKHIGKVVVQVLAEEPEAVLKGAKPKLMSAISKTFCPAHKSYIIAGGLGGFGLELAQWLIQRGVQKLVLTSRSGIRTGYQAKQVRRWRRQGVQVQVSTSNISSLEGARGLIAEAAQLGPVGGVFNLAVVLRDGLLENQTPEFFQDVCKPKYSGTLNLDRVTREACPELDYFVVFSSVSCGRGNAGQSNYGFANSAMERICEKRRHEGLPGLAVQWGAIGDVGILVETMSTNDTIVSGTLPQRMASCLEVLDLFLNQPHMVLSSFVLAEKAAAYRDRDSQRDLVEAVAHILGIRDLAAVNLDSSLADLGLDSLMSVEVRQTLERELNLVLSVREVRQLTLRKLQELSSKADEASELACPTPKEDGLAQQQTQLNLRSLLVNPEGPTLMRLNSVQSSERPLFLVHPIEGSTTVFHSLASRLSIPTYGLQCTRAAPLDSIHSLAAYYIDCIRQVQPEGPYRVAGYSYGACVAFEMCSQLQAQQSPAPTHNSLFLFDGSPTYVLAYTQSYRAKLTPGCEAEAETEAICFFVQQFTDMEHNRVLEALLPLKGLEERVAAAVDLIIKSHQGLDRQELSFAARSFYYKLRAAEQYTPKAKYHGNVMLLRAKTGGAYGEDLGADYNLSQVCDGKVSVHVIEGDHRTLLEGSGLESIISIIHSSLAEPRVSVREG
# Sequence of UniProt Q9HA64 (Q9HA64 whole entry, looked up): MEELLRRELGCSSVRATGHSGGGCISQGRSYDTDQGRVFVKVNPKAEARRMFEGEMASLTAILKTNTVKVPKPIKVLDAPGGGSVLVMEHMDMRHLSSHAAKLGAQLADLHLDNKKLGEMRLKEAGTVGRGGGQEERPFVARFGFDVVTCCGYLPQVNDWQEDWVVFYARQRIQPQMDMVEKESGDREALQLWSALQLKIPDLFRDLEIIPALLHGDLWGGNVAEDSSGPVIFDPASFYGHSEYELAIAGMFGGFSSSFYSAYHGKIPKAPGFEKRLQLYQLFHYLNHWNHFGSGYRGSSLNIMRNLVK
Target,probe-labelled cysteine peptide fold change (10 µM),probe-labelled cysteine peptide fold change (50 µM)
FBLN1_P23142_556_CLAFECPENYRR (UniProt P23142),0.59,0.279
ERO1A_Q96HE7_394_IMDCVGCFK (UniProt Q96HE7),-0.2,0.124
FASN_P49327_496_GGPEVQQVPAGERPLWFICSGMGTQWR (UniProt P49327),0.138,0.0338
ELL_P55199_411_DCEHGEAAAPAPTVR (UniProt P55199),-0.312,0.154
EHMT2_Q96KQ7_126_GGSCPSR (UniProt Q96KQ7),0.757,0.0982
FUT8_Q9BYC5_266_YATGGWETVFRPVSETCTDR (UniProt Q9BYC5),0.158,-0.0564
EIF3E_P60228_345_LFIFETFCR (UniProt P60228),0.435,0.338
ELMSAN1_Q6PJG2_502_CGVEFSEPSLATK (UniProt Q6PJG2),-0.123,-0.314
EPRS_P07814_1309_VACVQVVIIPCGITNALSEEDK (UniProt P07814),-0.0118,0.0556
FUCA2_Q9BTY2_455_LLGHGQPLNWISLEQNGIMVELPQLTIHQMPCK (UniProt Q9BTY2),0.558,-0.0872
EXOC2_Q96KP1_373_YLSDLHASGDPAWQCIGAQHK (UniProt Q96KP1),0.0266,-0.377
FCHSD1_Q86WN1_88_CLLDATVAGGQTR (UniProt Q86WN1),0.155,-0.0769
EIF5_P55010_102_FVLCPECENPETDLHVNPK (UniProt P55010),-0.0191,-0.0603
FKBP4_Q02790_342_LQAFSAAIESCNK (UniProt Q02790),0.0532,0.0437
EIF3A_Q14152_160_QCLDLLR (UniProt Q14152),0.00482,0.157
EIF3B_P55884_515_NLFNVVDCK (UniProt P55884),0.0721,0.16
FN3KRP_Q9HA64_11_RELGCSSVR (UniProt Q9HA64),-0.0218,0.00455
FER_P16591-3_26_TCALMFSSEPSTSEVHRDQER (UniProt P16591),0.171,0.143
FCF1_Q9Y324_154_CYIVATVDRDLK (UniProt Q9Y324),-0.153,-0.0908
EEF1A1P5_Q5VTE0_363+370_GNVAGDSKNDPPMEAAGFTAQVIILNHPGQISAGYAPVLDCHMAHIACK (UniProt Q5VTE0),-0.549,-0.652
EIF4G3_O43432_930_NHDEESLECLCR (UniProt O43432),0.145,0.571
EEF1A1_P68104_370_NDPPMEAAGFTAQVIILNHPGQISAGYAPVLDCHTAHIACK (UniProt P68104),-0.0321,-0.0387
FAM83H_Q6ZRV2_789_SLESCLLDLR (UniProt Q6ZRV2),-0.223,0.666
EFR3A_Q14156_538_HIYLGCK (UniProt Q14156),0.217,0.169

Target,probe-labelled cysteine peptide fold change (10 µM),probe-labelled cysteine peptide fold change (50 µM)
FKBP9_O95302_214_GLLGMCVGEK (UniProt O95302),-0.188,0.15
EHBP1L1_Q8N3D4_1364_FQDTSQYVCAELQALEQEQR (UniProt Q8N3D4),0.371,0.594
FSCN1_Q16658_89_EVPGPDCR (UniProt Q16658),-0.0199,0.201
FMC1_Q96HJ9-2_414_DQDLASCDRDR<|>LUC7L2_Q9Y383_348_DQDLASCDRDR (UniProt Q9Y383+Q96HJ9),-0.661,0.0136
FTO_Q9C0B1_136_HTEAEIAAACETFLK (UniProt Q9C0B1),-0.0653,-0.153
FABP5_Q01469_127_LVVECVMNNVTCTR (UniProt Q01469),0.0403,0.0166
FUS_P35637_433_CPNPTCENMNFSWR (UniProt P35637),-0.0606,-0.0258
FLNA_P21333_2378_VHSPSGALEECYVTEIDQDK (UniProt P21333),0.593,0.639
EPS15_P42566_586_VCSELDNNR (UniProt P42566),-0.0738,-0.0904
FKBP5_Q13451_103_KGEICHLLCK (UniProt Q13451),0.175,0.249
EIPR1_Q53HC9_83_GVLTTCYNR (UniProt Q53HC9),0.0806,0.00638
EGLN1_Q9GZT9_323_CVTCIYYLNK (UniProt Q9GZT9),0.189,0.0838
FBXO45_P0C2W1_98_TDILCNLPSYK (UniProt P0C2W1),-0.0226,0.569
F2_P00734_564_GDACEGDSGGPFVMK (UniProt P00734),0.617,0.448
EIF2AK4_Q9P2K8_118_HCGEVMIFELAYHVQSFLSEHNKPPPK (UniProt Q9P2K8),0.231,0.0104
EFTUD2_Q15029_639_SYPSLTTKVEESGEHVILGTGELYLDCVMHDLRK (UniProt Q15029),-0.604,-0.158
FAM208B_Q5VWN6_873_AHAAEVSFRDPNCLLPFIK (UniProt Q5VWN6),-0.00307,-0.148
FAM129A_Q9BZQ8_194_FSALLSDCVR (UniProt Q9BZQ8),-0.0662,-0.00207
FILIP1L_Q4L180_737_IHEYMATEDLICHLQGDHSVLQK (UniProt Q4L180),0.0105,-0.229
EFTUD2_Q15029_639_VEESGEHVILGTGELYLDCVMHDLRK (UniProt Q15029),0.00776,0.0383
EED_O75530_324+330_SCENAIVCWKPGK (UniProt O75530),0.0705,0.0442
EPHX2_P34913_314_GYGESSAPPEIEEYCMEVLCK (UniProt P34913),0.202,0.106
FBXO3_Q9UK99_136_EGAREEDLDAVEAQIGCK (UniProt Q9UK99),-0.113,-0.0991
